Measurements published in US9340590B2 (priority 2011, dated 2016).
Where two headings read alike, the source gives them in different places. For some assays here: Part of at least one peptide drawing is inferred or uncertain, most often the ends. For some assays here: For at least one compound, name, drawing or mass did not settle the structure. Positions of bridges follow the written chain, without caps; N, C: chain ends. Residues, ends and D or L forms follow the SMILES beside them.

Assays:
Format in all cases: cell-based
hNav1.7 [1] = molecular target: T1, hNav1.7 (Homo sapiens, UniProt Q15858); conditions: IonWorks Quattro, read-out: IWQ Use Nav1.7
T1 sequence (Q15858 whole entry, looked up): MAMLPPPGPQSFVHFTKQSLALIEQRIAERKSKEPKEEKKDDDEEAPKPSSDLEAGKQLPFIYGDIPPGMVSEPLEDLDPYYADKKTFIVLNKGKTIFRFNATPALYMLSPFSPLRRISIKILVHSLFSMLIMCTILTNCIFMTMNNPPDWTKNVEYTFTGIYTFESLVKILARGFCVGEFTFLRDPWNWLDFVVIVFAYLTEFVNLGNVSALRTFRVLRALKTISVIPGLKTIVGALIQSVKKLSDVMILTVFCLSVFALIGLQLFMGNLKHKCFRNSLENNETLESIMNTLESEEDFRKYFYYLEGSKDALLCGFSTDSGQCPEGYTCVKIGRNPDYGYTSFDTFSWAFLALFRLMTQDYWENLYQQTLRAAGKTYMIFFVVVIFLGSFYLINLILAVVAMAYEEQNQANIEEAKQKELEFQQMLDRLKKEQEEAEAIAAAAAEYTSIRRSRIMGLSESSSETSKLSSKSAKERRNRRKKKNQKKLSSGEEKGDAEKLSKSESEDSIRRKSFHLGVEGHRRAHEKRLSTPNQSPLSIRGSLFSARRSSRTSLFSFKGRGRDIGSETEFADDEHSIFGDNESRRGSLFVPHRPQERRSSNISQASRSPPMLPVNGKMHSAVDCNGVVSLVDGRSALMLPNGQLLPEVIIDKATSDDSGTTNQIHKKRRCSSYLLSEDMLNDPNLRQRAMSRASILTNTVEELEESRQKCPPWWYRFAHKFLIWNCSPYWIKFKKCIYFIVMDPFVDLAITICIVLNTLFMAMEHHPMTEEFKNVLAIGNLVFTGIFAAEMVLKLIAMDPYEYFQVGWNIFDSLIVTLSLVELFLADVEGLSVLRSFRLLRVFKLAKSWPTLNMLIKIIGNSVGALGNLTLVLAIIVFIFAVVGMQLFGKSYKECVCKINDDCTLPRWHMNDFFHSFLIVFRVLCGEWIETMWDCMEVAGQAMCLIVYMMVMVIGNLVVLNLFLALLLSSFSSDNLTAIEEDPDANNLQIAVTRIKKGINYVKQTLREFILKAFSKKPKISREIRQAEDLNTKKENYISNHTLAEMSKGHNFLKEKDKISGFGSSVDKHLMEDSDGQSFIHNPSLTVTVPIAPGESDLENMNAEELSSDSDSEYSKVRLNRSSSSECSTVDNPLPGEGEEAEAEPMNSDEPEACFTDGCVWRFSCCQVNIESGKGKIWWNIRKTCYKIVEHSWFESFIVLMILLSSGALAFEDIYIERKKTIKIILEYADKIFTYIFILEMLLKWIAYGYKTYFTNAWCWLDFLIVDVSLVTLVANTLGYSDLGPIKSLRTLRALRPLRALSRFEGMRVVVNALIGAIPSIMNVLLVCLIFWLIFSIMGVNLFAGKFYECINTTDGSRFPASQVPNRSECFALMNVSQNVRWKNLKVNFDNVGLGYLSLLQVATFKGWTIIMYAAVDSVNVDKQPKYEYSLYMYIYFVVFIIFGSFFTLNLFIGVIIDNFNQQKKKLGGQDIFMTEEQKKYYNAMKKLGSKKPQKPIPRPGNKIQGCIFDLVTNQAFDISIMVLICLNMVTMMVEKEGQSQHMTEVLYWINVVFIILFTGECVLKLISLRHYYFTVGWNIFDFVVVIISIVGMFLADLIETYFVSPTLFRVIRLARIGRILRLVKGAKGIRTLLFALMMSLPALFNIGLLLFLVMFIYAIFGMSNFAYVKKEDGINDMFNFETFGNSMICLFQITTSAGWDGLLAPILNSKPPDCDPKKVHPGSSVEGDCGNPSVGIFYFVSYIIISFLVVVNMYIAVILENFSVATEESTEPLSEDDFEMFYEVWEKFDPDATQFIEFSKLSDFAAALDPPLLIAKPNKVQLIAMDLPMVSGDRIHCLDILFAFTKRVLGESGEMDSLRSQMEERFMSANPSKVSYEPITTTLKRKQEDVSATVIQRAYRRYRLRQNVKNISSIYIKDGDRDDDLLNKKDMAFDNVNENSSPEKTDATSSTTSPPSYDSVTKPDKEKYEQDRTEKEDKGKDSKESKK

hNav1.5 [2] = molecular target: T2, hNav1.5 (Homo sapiens, UniProt Q14524); conditions: IonWorks Quattro, read-out: IWQ Use Nav1.5
hNav1.4 = hNav1.4 (Homo sapiens, UniProt P35499); conditions: IonWorks Quattro, read-out: IWQ Use Nav1.4
hNav1.3 = hNav1.3 (Homo sapiens, UniProt Q9NY46); conditions: IonWorks Quattro, read-out: IWQ Use Nav1.3
Sequence of hNav1.3 (Q9NY46 whole entry, looked up): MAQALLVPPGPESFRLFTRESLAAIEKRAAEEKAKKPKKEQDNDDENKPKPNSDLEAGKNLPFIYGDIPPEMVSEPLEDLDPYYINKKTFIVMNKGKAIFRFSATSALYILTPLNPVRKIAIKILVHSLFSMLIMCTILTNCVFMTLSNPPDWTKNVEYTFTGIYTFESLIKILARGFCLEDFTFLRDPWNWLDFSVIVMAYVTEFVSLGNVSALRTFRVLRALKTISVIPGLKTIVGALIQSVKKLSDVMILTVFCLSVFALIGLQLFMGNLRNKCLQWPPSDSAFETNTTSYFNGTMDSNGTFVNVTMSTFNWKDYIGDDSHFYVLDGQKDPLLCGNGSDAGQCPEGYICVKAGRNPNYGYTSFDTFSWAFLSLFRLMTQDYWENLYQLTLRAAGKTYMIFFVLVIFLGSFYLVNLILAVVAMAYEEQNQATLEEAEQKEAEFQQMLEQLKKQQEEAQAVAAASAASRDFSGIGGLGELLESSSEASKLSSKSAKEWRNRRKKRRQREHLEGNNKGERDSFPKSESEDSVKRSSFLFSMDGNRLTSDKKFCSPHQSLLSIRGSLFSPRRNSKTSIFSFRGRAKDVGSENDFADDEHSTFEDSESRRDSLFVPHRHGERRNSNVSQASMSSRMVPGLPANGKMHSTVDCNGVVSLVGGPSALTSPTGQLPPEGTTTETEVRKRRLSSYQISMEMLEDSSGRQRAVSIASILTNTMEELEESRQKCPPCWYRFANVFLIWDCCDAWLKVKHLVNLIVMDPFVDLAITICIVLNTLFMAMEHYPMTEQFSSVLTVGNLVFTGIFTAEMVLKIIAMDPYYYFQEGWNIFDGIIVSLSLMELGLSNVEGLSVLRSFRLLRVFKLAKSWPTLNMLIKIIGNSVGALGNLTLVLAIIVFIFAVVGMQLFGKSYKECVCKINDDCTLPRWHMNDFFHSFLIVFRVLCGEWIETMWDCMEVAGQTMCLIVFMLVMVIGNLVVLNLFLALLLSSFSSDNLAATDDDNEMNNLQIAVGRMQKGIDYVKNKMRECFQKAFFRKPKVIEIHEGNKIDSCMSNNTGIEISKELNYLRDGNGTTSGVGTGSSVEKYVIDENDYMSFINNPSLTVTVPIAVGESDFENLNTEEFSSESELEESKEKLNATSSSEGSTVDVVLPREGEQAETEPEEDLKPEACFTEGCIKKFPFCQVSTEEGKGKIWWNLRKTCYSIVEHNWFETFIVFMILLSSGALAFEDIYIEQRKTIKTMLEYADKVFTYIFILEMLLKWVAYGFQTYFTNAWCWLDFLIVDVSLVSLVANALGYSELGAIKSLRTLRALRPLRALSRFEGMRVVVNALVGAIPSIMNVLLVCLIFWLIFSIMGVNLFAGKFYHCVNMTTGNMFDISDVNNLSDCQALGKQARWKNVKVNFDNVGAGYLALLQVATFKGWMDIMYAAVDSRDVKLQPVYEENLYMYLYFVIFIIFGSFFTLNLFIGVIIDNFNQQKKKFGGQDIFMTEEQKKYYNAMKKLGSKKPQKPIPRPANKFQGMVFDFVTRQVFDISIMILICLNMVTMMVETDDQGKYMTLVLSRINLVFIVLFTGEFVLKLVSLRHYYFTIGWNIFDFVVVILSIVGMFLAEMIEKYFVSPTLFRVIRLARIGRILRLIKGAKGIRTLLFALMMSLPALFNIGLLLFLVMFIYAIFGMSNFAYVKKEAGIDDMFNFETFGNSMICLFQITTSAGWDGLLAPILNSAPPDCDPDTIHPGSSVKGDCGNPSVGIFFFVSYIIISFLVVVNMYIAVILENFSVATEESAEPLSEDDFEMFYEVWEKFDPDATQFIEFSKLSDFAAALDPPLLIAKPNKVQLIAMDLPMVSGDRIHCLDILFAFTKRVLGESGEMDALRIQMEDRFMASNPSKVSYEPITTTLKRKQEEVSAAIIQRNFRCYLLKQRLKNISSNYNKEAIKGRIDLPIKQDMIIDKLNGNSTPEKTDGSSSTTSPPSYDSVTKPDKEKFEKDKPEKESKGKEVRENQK

hNav1.7 [3] = molecular target: T1, hNav1.7; conditions: read-out: Nav1.7 Use IC50
hNav1.5 [4] = molecular target: T2, hNav1.5; conditions: read-out: Nav1.5 Use IC50
[5] = use-dependent protocol, hNav1.7
[6] = use-dependent protocol, hNav1.5
[7] = use-dependent protocol, hNav1.4
[8] = use-dependent protocol, hNav1.3

| Structure (SMILES) | IC50 (hNav1.7 [1]; use-dependent block) | IC50 (hNav1.5 [2]; use-dependent block) | IC50 (hNav1.4; use-dependent block) | IC50 (hNav1.3; use-dependent block) | IC50 (hNav1.7 [3]) | IC50 (hNav1.5 [4]) | IC50 (hNav1.7 [1]; [5]) | IC50 (hNav1.5 [2]; [6]) | IC50 (hNav1.4; [7]) | IC50 (hNav1.3; [8]) |
| --- | --- | --- | --- | --- | --- | --- | --- | --- | --- | --- |
| CC(C)C[C@@H]1NC(=O)[C@@H](NC(=O)[C@@H](N)CC(=O)O)CSSC[C@@H]2NC(=O)[C@@H]3CSSC[C@@H](C(=O)N[C@@H](CCCCN)C(=O)N[C@@H](Cc4ccc(O)cc4)C(=O)N[C@H](C(=O)N[C@@H](Cc4ccccc4)C(N)=O)C(C)C)NC(=O)[C@H](Cc4c[nH]c5ccccc45)NC(=O)[C@H](CCCCN)NC(=O)[C@H](Cc4c[nH]cn4)NC(=O)[C@H](CC(C)C)NC(=O)[C@H](CCCNC(=N)N)NC(=O)[C@H](CO)NC(=O)[C@H](CSSC[C@H](NC(=O)[C@H](CCCCN)NC(=O)[C@H](CCCNC(=N)N)NC(=O)[C@H](Cc4ccccc4)NC(=O)[C@H](Cc4ccccc4)NC(=O)CNC1=O)C(=O)N[C@@H](Cc1cn(CCOCCOCCOCCOCCOCCOCCOCCOCCOCCOCCN)nn1)C(=O)N1CCC[C@H]1C(=O)N[C@@H](CC(=O)O)C(=O)N[C@@H](CC(N)=O)C(=O)N[C@@H](CC(=O)O)C(=O)N[C@@H](CCCCN)C(=O)N3)NC(=O)[C@H](C(C)C)NC(=O)[C@H](CC(C)C)NC(=O)[C@H](CC(N)=O)NC(=O)[C@@H]1CCCN1C(=O)[C@H](CCCNC(=N)N)NC2=O [compound 523] | 0.027 µM | 7.19 µM | 0.5 µM | 0.014 µM | 0.02 µM | – | – | – | – | – |
| CC[C@H](C)[C@@H]1NC(=O)[C@@H]2CSSC[C@@H]3NC(=O)[C@H](C(C)C)NC(=O)[C@H](CC(C)C)NC(=O)[C@H](CC(N)=O)NC(=O)[C@@H]4CCCN4C(=O)[C@H](CCCNC(=N)N)NC(=O)[C@H](CSSC[C@H](NC(=O)[C@@H](N)CC(=O)O)C(=O)N[C@@H](CC(C)C)C(=O)NCC(=O)N[C@@H](C)C(=O)N[C@@H](CCSC)C(=O)N[C@@H](CCCNC(=N)N)C(=O)N[C@@H](CCCCN)C(=O)N2)NC(=O)[C@H](CSSC[C@@H](C(=O)N[C@@H](CCCCN)C(=O)N[C@@H](Cc2ccc(O)cc2)C(=O)N[C@H](C(=O)N[C@@H](Cc2ccccc2)C(N)=O)C(C)C)NC(=O)[C@H](CCC(=O)O)NC(=O)[C@H](CCCCN)NC(=O)[C@H](Cc2c[nH]cn2)NC(=O)[C@H]([C@@H](C)O)NC(=O)[C@H](CCCNC(=N)N)NC(=O)[C@H](CO)NC3=O)NC(=O)[C@H](CCCCN)NC(=O)[C@H](CC(=O)O)NC(=O)[C@H](CC(N)=O)NC(=O)[C@H](CC(=O)O)NC(=O)[C@@H]2CCCN2C1=O [[Ala5;Glu29]GpTx-1(1-34)] (H-DCLGAMRKCIPDNDKCCRPNLVCSRTHKECKYVF-NH2; disulfide 2-17, 9-23, 16-30) | – | – | – | – | > 10 µM | > 10 µM | – | – | – | – |
| CC[C@H](C)[C@@H]1NC(=O)[C@@H]2CSSC[C@@H]3NC(=O)[C@H](C(C)C)NC(=O)[C@H](CC(C)C)NC(=O)[C@H](CC(N)=O)NC(=O)[C@@H]4CCCN4C(=O)[C@H](CCCNC(=N)N)NC(=O)[C@H](CSSC[C@H](NC(=O)[C@@H](N)CC(=O)O)C(=O)N[C@@H](CC(C)C)C(=O)NCC(=O)N[C@@H](C)C(=O)N[C@@H](Cc4ccccc4)C(=O)N[C@@H](CCCNC(=N)N)C(=O)N[C@@H](CCCCN)C(=O)N2)NC(=O)[C@H](CSSC[C@@H](C(=O)N[C@@H](CCCCN)C(=O)N[C@@H](Cc2ccc(O)cc2)C(=O)N[C@H](C(=O)N[C@@H](Cc2ccccc2)C(N)=O)C(C)C)NC(=O)[C@H](Cc2c[nH]c4ccccc24)NC(=O)[C@H](CCCNC(=N)N)NC(=O)[C@H](Cc2c[nH]cn2)NC(=O)[C@H](CC(C)C)NC(=O)[C@H](CCCNC(=N)N)NC(=O)[C@H](CO)NC3=O)NC(=O)[C@H](CCCCN)NC(=O)[C@H](CC(=O)O)NC(=O)[C@H](Cc2cn(CCOCCOCCOCCNC(=O)CSCCO)nn2)NC(=O)[C@H](CC(=O)O)NC(=O)[C@@H]2CCCN2C1=O | – | – | – | – | 0.003 µM | > 10 µM | – | – | – | – |
| CC[C@H](C)[C@@H]1NC(=O)[C@@H]2CSSC[C@@H]3NC(=O)[C@H](C(C)C)NC(=O)[C@H](CC(C)C)NC(=O)[C@H](CC(N)=O)NC(=O)[C@@H]4CCCN4C(=O)[C@H](CCCNC(=N)N)NC(=O)[C@H](CSSC[C@H](NC(=O)[C@@H](N)Cc4cn(CCOCCOCCOCCOCCOCCOCCOCCOCCOCCOCCN)nn4)C(=O)N[C@@H](CC(C)C)C(=O)NCC(=O)N[C@@H](Cc4ccccc4)C(=O)N[C@@H](Cc4ccccc4)C(=O)N[C@@H](CCCNC(=N)N)C(=O)N[C@@H](CCCCN)C(=O)N2)NC(=O)[C@H](CSSC[C@@H](C(=O)N[C@@H](CCCCN)C(=O)N[C@@H](Cc2ccc(O)cc2)C(=O)N[C@H](C(=O)N[C@@H](Cc2ccccc2)C(N)=O)C(C)C)NC(=O)[C@H](Cc2c[nH]c4ccccc24)NC(=O)[C@H](CCCCN)NC(=O)[C@H](Cc2c[nH]cn2)NC(=O)[C@H](CC(C)C)NC(=O)[C@H](CCCNC(=N)N)NC(=O)[C@H](CO)NC3=O)NC(=O)[C@H](CCCCN)NC(=O)[C@H](CC(=O)O)NC(=O)[C@H](CC(N)=O)NC(=O)[C@H](CC(=O)O)NC(=O)[C@@H]2CCCN2C1=O [compound 581] | 0.025 µM | 6.22 µM | 0.29 µM | 0.018 µM | – | – | – | – | – | – |
| CC[C@H](C)[C@@H]1NC(=O)[C@@H]2CSSC[C@@H]3NC(=O)[C@H](C(C)C)NC(=O)[C@H](CC(C)C)NC(=O)[C@H](CC(N)=O)NC(=O)[C@@H]4CCCN4C(=O)[C@H](CCCNC(=N)N)NC(=O)[C@H](CSSC[C@H](NC(=O)[C@@H](N)CC(=O)O)C(=O)N[C@@H](CC(C)C)C(=O)NCC(=O)N[C@@H](Cc4ccc(F)cc4)C(=O)N[C@@H](CCSC)C(=O)N[C@@H](CCCNC(=N)N)C(=O)N[C@@H](CCCCN)C(=O)N2)NC(=O)[C@H](CSSC[C@@H](C(=O)N[C@@H](CCCCN)C(=O)N[C@@H](Cc2ccc(O)cc2)C(=O)N[C@H](C(=O)N[C@@H](Cc2ccccc2)C(N)=O)C(C)C)NC(=O)[C@H](Cc2c[nH]c4ccccc24)NC(=O)[C@H](CCCCN)NC(=O)[C@H](Cc2c[nH]cn2)NC(=O)[C@H]([C@@H](C)O)NC(=O)[C@H](CCCNC(=N)N)NC(=O)[C@H](CO)NC3=O)NC(=O)[C@H](CCCCN)NC(=O)[C@H](CC(=O)O)NC(=O)[C@H](CC(N)=O)NC(=O)[C@H](CC(=O)O)NC(=O)[C@@H]2CCCN2C1=O [compound 655] | – | – | – | – | – | – | 0.26 µM | > 5 µM | 1.9 µM | 0.07 µM |
| CC[C@H](C)[C@@H]1NC(=O)[C@@H]2CSSC[C@@H]3NC(=O)[C@H](C(C)C)NC(=O)[C@H](CC(C)C)NC(=O)[C@H](CC(N)=O)NC(=O)[C@@H]4CCCN4C(=O)[C@H](CCCNC(=N)N)NC(=O)[C@H](CSSC[C@H](NC(=O)[C@@H](N)CC(=O)O)C(=O)N[C@@H](CC(C)C)C(=O)NCC(=O)N[C@@H](Cc4ccccc4)C(=O)N[C@@H](Cc4cn(CCOCCOCCOCCOCCOCCOCCOCCOCCOCCOCCN)nn4)C(=O)N[C@@H](CCCNC(=N)N)C(=O)N[C@@H](CCCCN)C(=O)N2)NC(=O)[C@H](CSSC[C@@H](C(=O)N[C@@H](CCCCN)C(=O)N[C@@H](Cc2ccc(O)cc2)C(=O)N[C@H](C(=O)N[C@@H](Cc2ccccc2)C(N)=O)C(C)C)NC(=O)[C@H](Cc2c[nH]c4ccccc24)NC(=O)[C@H](CCCCN)NC(=O)[C@H](Cc2c[nH]cn2)NC(=O)[C@H](CC(C)C)NC(=O)[C@H](CCCNC(=N)N)NC(=O)[C@H](CO)NC3=O)NC(=O)[C@H](CCCCN)NC(=O)[C@H](CC(=O)O)NC(=O)[C@H](CC(N)=O)NC(=O)[C@H](CC(=O)O)NC(=O)[C@@H]2CCCN2C1=O [compound 583] | 7.4 µM | 8.36 µM | 20.9 µM | 5.8 µM | – | – | – | – | – | – |
| CC[C@H](C)[C@@H]1NC(=O)[C@@H]2CSSC[C@@H]3NC(=O)[C@H](C(C)C)NC(=O)[C@H](CC(C)C)NC(=O)[C@H](CC(N)=O)NC(=O)[C@@H]4CCCN4C(=O)[C@H](CCCNC(=N)N)NC(=O)[C@H](CSSC[C@H](NC(=O)[C@@H](N)CC(=O)O)C(=O)N[C@@H](CC(C)C)C(=O)NCC(=O)N[C@@H](Cc4cn(CCOCCOCCOCCOCCOCCOCCOCCOCCOCCOCCN)nn4)C(=O)N[C@@H](Cc4ccccc4)C(=O)N[C@@H](CCCNC(=N)N)C(=O)N[C@@H](CCCCN)C(=O)N2)NC(=O)[C@H](CSSC[C@@H](C(=O)N[C@@H](CCCCN)C(=O)N[C@@H](Cc2ccc(O)cc2)C(=O)N[C@H](C(=O)N[C@@H](Cc2ccccc2)C(N)=O)C(C)C)NC(=O)[C@H](Cc2c[nH]c4ccccc24)NC(=O)[C@H](CCCCN)NC(=O)[C@H](Cc2c[nH]cn2)NC(=O)[C@H](CC(C)C)NC(=O)[C@H](CCCNC(=N)N)NC(=O)[C@H](CO)NC3=O)NC(=O)[C@H](CCCCN)NC(=O)[C@H](CC(=O)O)NC(=O)[C@H](CC(N)=O)NC(=O)[C@H](CC(=O)O)NC(=O)[C@@H]2CCCN2C1=O [compound 582] | 7.9 µM | 8.08 µM | 17.2 µM | 4 µM | – | – | – | – | – | – |
| CC[C@H](C)[C@@H]1NC(=O)[C@@H]2CSSC[C@@H]3NC(=O)[C@H](C(C)C)NC(=O)[C@H](CC(C)C)NC(=O)[C@H](CC(N)=O)NC(=O)[C@@H]4CCCN4C(=O)[C@H](CCCNC(=N)N)NC(=O)[C@H](CSSC[C@H](NC(=O)[C@@H](N)CC(=O)O)C(=O)N[C@@H](CC(C)C)C(=O)NCC(=O)N[C@@H](Cc4ccc(Cl)c(Cl)c4)C(=O)N[C@@H](CCSC)C(=O)N[C@@H](CCCNC(=N)N)C(=O)N[C@@H](CCCCN)C(=O)N2)NC(=O)[C@H](CSSC[C@@H](C(=O)N[C@@H](CCCCN)C(=O)N[C@@H](Cc2ccc(O)cc2)C(=O)N[C@H](C(=O)N[C@@H](Cc2ccccc2)C(N)=O)C(C)C)NC(=O)[C@H](Cc2c[nH]c4ccccc24)NC(=O)[C@H](CCCCN)NC(=O)[C@H](Cc2c[nH]cn2)NC(=O)[C@H]([C@@H](C)O)NC(=O)[C@H](CCCNC(=N)N)NC(=O)[C@H](CO)NC3=O)NC(=O)[C@H](CCCCN)NC(=O)[C@H](CC(=O)O)NC(=O)[C@H](CC(N)=O)NC(=O)[C@H](CC(=O)O)NC(=O)[C@@H]2CCCN2C1=O [compound 653] | – | – | – | – | – | – | 0.14 µM | > 5 µM | 1.2 µM | 0.069 µM |
